Measured values taken from PubChem BioAssay AID588855 (National Center for Advancing Translational Sciences (NCATS), 2011).
Several values for one entry are separate records, joined by “and”; a condition that tells them apart may be missing. Identical values can stand only once. The campaign covered roughly 410,000 compounds. About 5,000 (1.2%) were called active. Inconclusive results, whose numbers are uncertain, are shown with a selection of clear calls. Calls come from the whole dose curve; as a rule, active = well fitted inhibition curve with a large enough effect; inconclusive = small, poorly fitted or top-dose-only effect; inactive = no such curve, though single readings can be large or run the other way. Where the call is inconclusive, the potency comes from a doubtful curve fit. Bridge positions count the residues as written; N and C are the ends. Square brackets hold non-standard residues; d marks the D form. Peptide text beside a SMILES is read from it.

Assay: qHTS for Inhibitors of TGF-b; note: nearly all actives have a fitted effect of over 65% in size
Conditions: HepG2 CAGA-GFP TGF-b/SMAD3 reporter, GFP fluorescence, 18 h, TGF-beta stimulated, 500 pg/mL final; series mostly up to 46.1 µM
Method in brief: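 Per well, imaged GFP fluorescence of HEPG2 CAGA-GFP cells gives the signal; cells get compound, then TGF-beta (500 pg/mL final), 18 h at 37 degrees C; %Activity versus -TGF-beta and +DMSO controls.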
Potency is the fitted concentration of half-maximal effect; tags give direction and shape of the fitted curve.

Q: Which Potency does the source give for Cc1c(/C=N\NC(=O)C2COc3ccc(C(C)(C)C)cc3O2)c2ccccc2n1C (stereo not given) here?
A: inconclusive: 35.5 µM [inhibitor, single point]

Q: With COc1ccc(CCCN2CCC(CN3CCNC(=O)C3=O)CC2)cc1OC as the compound, how does the Potency read?
A: inactive

Q: Which Potency does the source give for CCCCN(C(=O)c1cccc2c(=O)c(C)c(-c3ccccc3)oc12)c1ccccc1 here?
A: active: 14.1 µM

Q: With Cc1ccc(NC(=O)CSc2ccccc2NC(=O)c2ccccc2Cl)cc1Cl as the compound, how does the Potency read?
A: inconclusive: 20 µM [inhibitor, single point]

Q: Which Potency does the source give for CCCn1c(SCC(=O)NNC(=O)c2ccccc2)nnc1-c1cccnc1 here?
A: inactive

Q: Which Potency does the source give for CC1(C)Cc2cccc(OCC(=O)NCCOc3ccccc3)c2O1 here?
A: inconclusive: 1.78 µM [inhibitor, full curve, poor fit]

Q: Which Potency does the source give for Cc1cccc(NC(=O)c2ccc3c(Cl)c4c(nc3c2)CCCC4)n1 here?
A: inconclusive: 20 µM [inhibitor, single point]

Q: For CCOC(=O)c1cnn(-c2ccc(OC)cc2)c1C1CCN(C(=O)OC(C)(C)C)CC1, which Potency is on record?
A: inconclusive: 11.2 µM [inhibitor, single point]

Q: Which Potency does the source give for CCC(C)c1ccccc1NC(=O)Cc1coc2cc3c(cc12)CCC3 (stereo not given) here?
A: inconclusive: 11.2 µM [inhibitor, partial curve, poor fit]

Q: For Cc1ccc(-c2nc(C(=O)NCc3ccc(Cl)cc3)c3n2CCCCC3)cc1, which Potency is on record?
A: inconclusive: 25.1 µM [inhibitor, single point]

Q: With Cc1nc(N)sc1-c1csc(Nc2ncccn2)n1 as the compound, how does the Potency read?
A: inactive

Q: For Cc1ccccc1CNC(=O)c1ccc(NC(=O)c2nsc3ccccc23)cc1, which Potency is on record?
A: inactive

Q: With CCN(CC(=O)NC1CCS(=O)(=O)C1)Cc1nc2c(Br)cc(Br)cc2c(=O)[nH]1 (stereo not given) as the compound, how does the Potency read?
A: inactive

Q: With CN(C)/C=N/c1ncc(C(=O)c2ccc(Cl)cc2Cl)s1 as the compound, how does the Potency read?
A: inconclusive: 35.5 µM [inhibitor, single point]

Q: For COCCCn1c(=O)c2sccc2n(Cc2ccccc2C)c1=O, which Potency is on record?
A: inactive

Q: With N#Cc1c(-c2cccc(Br)c2)cc(-c2cccnc2)nc1N as the compound, how does the Potency read?
A: inconclusive: 25.1 µM [inhibitor, single point]

Q: Which Potency does the source give for CCn1c(=O)cc(SCC(=O)Nc2ccc(C)c(F)c2)c2ccccc21 here?
A: inactive

Q: With Cc1cc(SCC(=O)Nc2cccc(S(=O)(=O)NC3=NCCCCC3)c2)c(C)cc1Br as the compound, how does the Potency read?
A: inconclusive: 35.5 µM [inhibitor, single point]

Q: With CC(C)c1ccc(NS(=O)(=O)c2ccc3[nH]cc(C(=O)NC4CCCC4)c(=O)c3c2)cc1 as the compound, how does the Potency read?
A: inconclusive: 15.8 µM [inhibitor, partial curve, poor fit]

Q: For Cc1cc[n+](CC(=O)N2CCCc3ccccc32)cc1, which Potency is on record?
A: inactive

Q: For CC(=O)N(C)c1ccc(NC(=O)Cc2cccc3ccccc23)cc1, which Potency is on record?
A: inactive

Q: For Cc1ccc(C(c2nnnn2CCc2ccccc2)N2CCC(C)CC2)cc1 (stereo not given), which Potency is on record?
A: inconclusive: 35.5 µM [inhibitor, single point]

Q: With CC(C)C(=O)N1CCN(c2ccc(NC(=O)c3ccc([N+](=O)[O-])o3)cc2Cl)CC1 as the compound, how does the Potency read?
A: active: 7.94 µM

Q: Which Potency does the source give for COc1ccc(N2C(=O)C3C(C2=O)C3(c2ccccc2)c2ccccc2)cc1 (stereo not given) here?
A: inconclusive: 10 µM [inhibitor, partial curve, poor fit]

Q: For N#C/C(=C(/O)C(Cl)c1ccccc1)c1nc2ccccc2s1 (stereo not given), which Potency is on record?
A: inactive

Q: Which Potency does the source give for O=C(COc1ccc(S(=O)(=O)NC2CCCCC2)cc1)N1CCN(c2cccc(Cl)c2)CC1 here?
A: inconclusive: 11.2 µM [inhibitor, partial curve, poor fit]

Q: With CCCCCCCNC(=O)C1(CC2CC(c3cccc(Br)c3)=NO2)CCNCC1 (stereo not given) as the compound, how does the Potency read?
A: inconclusive: 35.5 µM [inhibitor, single point]

Q: Which Potency does the source give for Cc1cc(NC(=O)CN2C(=O)C(C)(C)c3ccccc32)ccc1Br here?
A: inconclusive: 17.8 µM [inhibitor, single point]

Q: Which Potency does the source give for CCN(C(=O)CSc1nc2ccccc2n1CC(=O)Nc1cccc(C#N)c1)c1ccccc1 here?
A: inconclusive: 2.24 µM [inhibitor, full curve]

Q: For CCOC(=O)C1CCCN(C(=O)Cn2ncc3c([nH]c4ccccc43)c2=O)C1 (stereo not given), which Potency is on record?
A: inconclusive: 11.2 µM [inhibitor, single point]

Q: Which Potency does the source give for COc1ccc(C(CC(=O)Nc2ccc(F)c(Cl)c2)N2Cc3ccccc3C2=O)cc1OC (stereo not given) here?
A: inconclusive: 22.4 µM [inhibitor, single point]

Q: For Fc1ccc(CN2CCN(C(=S)NCCc3ccccc3)CC2)c(Cl)c1, which Potency is on record?
A: active: 7.94 µM

Q: Which Potency does the source give for O=C(NCCc1ccccc1)C1CCN(C2CCN(Cc3ccc(CO)o3)CC2)CC1 here?
A: inconclusive: 12.6 µM [inhibitor, partial curve, poor fit]

Q: For O=C1c2ccccc2C(=O)N1CCc1nc2ccccc2c(=O)n1Cc1ccco1, which Potency is on record?
A: inconclusive: 35.5 µM [inhibitor, partial curve, poor fit]

Q: For Cc1[nH]n2c(=O)cc(-c3ccccc3Cl)nc2c1-c1ccccc1, which Potency is on record?
A: inconclusive: 4.47 µM [inhibitor, full curve, poor fit]

Q: Which Potency does the source give for CN1CCN(C2Cc3ccc(Cl)cc3Sc3ccc(F)cc32)CC1 (stereo not given) here?
A: inconclusive: 35.5 µM [inhibitor, single point]

Q: For Cc1nc2ccccc2c(=O)n1NC(=O)c1c(O)c2c(n(CC(C)C)c1=O)CCCC2, which Potency is on record?
A: inconclusive: 31.6 µM [inhibitor, single point]

Q: With CN(C)C(=O)/C(C#N)=C\c1cc(Br)c(Sc2ccc(Cl)cc2)o1 as the compound, how does the Potency read?
A: inconclusive: 31.6 µM [inhibitor, single point]

Q: For CCn1c(C)nc2cc(C(=O)NNC(=O)CN(C)S(=O)(=O)c3ccc(NC(C)=O)cc3)ccc21, which Potency is on record?
A: inactive

Q: Which Potency does the source give for CC(/C=C/c1ccc(O)cc1)=NNc1ccccc1 here?
A: inactive

Q: Which Potency does the source give for Cc1nnc(SCC(=O)N(CC(C)C)C2CCS(=O)(=O)C2)s1 (stereo not given) here?
A: inconclusive: 35.5 µM [inhibitor, single point]

Q: With O=C(CSCc1ccc([N+](=O)[O-])cc1)Nc1ccc(S(=O)(=O)N2CCCCCC2)cc1 as the compound, how does the Potency read?
A: inconclusive: 14.1 µM [inhibitor, single point]

Q: With CC(C)CCC(O)(c1ccccc1)C(CN1CCOCC1)c1ccccc1 (stereo not given) as the compound, how does the Potency read?
A: inconclusive: 12.6 µM [inhibitor, partial curve, poor fit]

Q: For O=C(CNc1cccc2ccccc12)N/N=C/c1cccc(Oc2ccccc2)c1, which Potency is on record?
A: inconclusive: 11.2 µM [inhibitor, partial curve, poor fit]

Q: With CCCCCCN1C[C@H](n2cc(COC(=O)c3ccccc3)nn2)[C@@H](O)C[C@@H]1c1ccc(OC)cc1 as the compound, how does the Potency read?
A: inconclusive: 25.1 µM [inhibitor, single point]

Q: For CC[C@H](C)[C@@H]1NC(=O)[C@@H](CC(C)C)NC(=O)[C@H](C(C)C)NC(=O)[C@H]2CSSC[C@H](NC1=O)C(=O)N2 (cyclo(C[dC]V[dL]I); disulfide 1-2), which Potency is on record?
A: active: 1.26 µM

Q: For CC1=C(C(=O)Nc2ccccc2)C(c2ccncc2)n2nc(SCc3ccccc3Cl)nc2N1 (stereo not given), which Potency is on record?
A: inactive

Q: For CCc1c(C)sc(NC(=O)c2noc(C)c2[N+](=O)[O-])c1C#N, which Potency is on record?
A: inconclusive: 35.5 µM [inhibitor, single point]

Q: For Cc1ccc(/C=C2\SC(=S)N(NS(=O)(=O)c3ccc(C)cc3)C2=O)cc1, which Potency is on record?
A: inactive

Q: For CCOC(=O)C1CCN(CCC(=O)Nc2ccc(Cl)cc2)CC1, which Potency is on record?
A: inconclusive: 0.501 µM [inhibitor, full curve, poor fit]

Q: For Fc1ccc(C2CC(c3ccccc3)n3ncnc3N2)cc1 (stereo not given), which Potency is on record?
A: inconclusive: 25.1 µM [inhibitor, single point]

Q: For Cc1ccc(S(=O)(=O)Cc2ccc(C(=O)N3CCN(c4cccc(C)c4C)CC3)o2)cc1, which Potency is on record?
A: inconclusive: 11.2 µM [inhibitor, partial curve, poor fit] and inconclusive: 35.5 µM [inhibitor, single point]

Q: For CCOc1ccccc1NC(=S)NC1CCCCC1, which Potency is on record?
A: inactive

Q: For CCOC(=O)c1c(NC(=O)CSc2c[nH]c3ccccc23)sc2c1CCC2, which Potency is on record?
A: inconclusive: 25.1 µM [inhibitor, single point]

Q: Which Potency does the source give for COc1ccc(C(=O)OCc2cc(=O)n3nc(-c4cccs4)sc3n2)cc1 here?
A: inconclusive: 5.62 µM [inhibitor, single point]

Q: Which Potency does the source give for CC(=O)c1cccc(NC(=O)/C=C/c2ccc([N+](=O)[O-])s2)c1 here?
A: active: 7.08 µM

Q: With c1ccc(CNCCCNCCCCNCCCNCc2ccccc2)cc1 as the compound, how does the Potency read?
A: inconclusive: 12.6 µM [inhibitor, partial curve, poor fit]

Q: With CCC(Cn1nnc2ccccc2c1=O)NC(=O)Nc1cccc(C)c1C (stereo not given) as the compound, how does the Potency read?
A: inactive

Q: With COc1ccc(/C=C/C(=O)c2ccc3c(c2)OCCO3)cc1[N+](=O)[O-] as the compound, how does the Potency read?
A: inconclusive: 35.5 µM [inhibitor, single point]

Q: With CC1CCCN(C(=O)CSCC(=O)N=c2sc3ccccc3n2C)C1 (stereo not given) as the compound, how does the Potency read?
A: inconclusive: 5.62 µM [inhibitor, single point]

Q: Which Potency does the source give for C=CCn1c(CCNC(=O)c2ccc(Cl)c(Cl)c2)nnc1SCCOc1ccc(OC)cc1 here?
A: inconclusive: 17.8 µM [inhibitor, single point]

Q: With CCc1nc2ccc(C(=O)Nc3ccc(OC)c(OC)c3)cn2c1N(CC)Cc1cccc(Br)c1 as the compound, how does the Potency read?
A: inconclusive: 35.5 µM [inhibitor, single point]

Q: For CCOC(=O)c1ccc(N2CCN(c3cccc(OC)c3)CC2)c(NC(=O)Nc2ccc(OCC)cc2)c1, which Potency is on record?
A: inactive

Q: For CCOC(=O)N1c2ccccc2Sc2ccccc21, which Potency is on record?
A: inconclusive: 0.891 µM [inhibitor, full curve, poor fit]

Q: With CC(=O)c1ccc(N2CCN(C(=O)CCCn3c(=S)[nH]c4cc5c(cc4c3=O)OCO5)CC2)cc1 as the compound, how does the Potency read?
A: inactive
